Laboratory results taken from patent US7807153 (Genentech, dated 2010).

Tests used:
[1] = target: T1, poly-histidine-tagged soluble Apo-2L (UniProt P50591 114-281); assay: BIACORE, Apo-2 ECD purified with anti-Flag beads
T1 construct: Soluble form; also called Apo-2 ligand; TRAIL; not shown: poly-histidine tag

[2] = target: TNF-alpha (Genentech, Inc.) (UniProt P01375 fragment); assay: BIACORE
[3] = target: T2, Fas/Apo-1 ligand (Alexis Biochemicals) (UniProt P48023 103-281); assay: BIACORE
T2 sequence (looked up): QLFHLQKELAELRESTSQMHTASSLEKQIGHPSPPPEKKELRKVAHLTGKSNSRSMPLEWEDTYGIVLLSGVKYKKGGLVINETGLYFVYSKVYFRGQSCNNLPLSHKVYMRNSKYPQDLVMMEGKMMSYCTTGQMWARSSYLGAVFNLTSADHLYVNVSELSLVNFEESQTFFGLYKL

[4] = target: T3, lymphotoxin-alpha (Genentech, Inc.) (UniProt P01374 35-205, limits assumed); assay: BIACORE
T3 sequence (looked up): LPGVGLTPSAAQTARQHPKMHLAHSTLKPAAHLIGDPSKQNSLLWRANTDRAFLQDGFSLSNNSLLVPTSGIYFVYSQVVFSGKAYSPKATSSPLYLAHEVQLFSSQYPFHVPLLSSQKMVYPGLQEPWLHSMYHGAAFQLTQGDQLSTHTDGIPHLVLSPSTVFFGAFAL

UniProt P01375, sequence (P01375 77-233 limits assumed): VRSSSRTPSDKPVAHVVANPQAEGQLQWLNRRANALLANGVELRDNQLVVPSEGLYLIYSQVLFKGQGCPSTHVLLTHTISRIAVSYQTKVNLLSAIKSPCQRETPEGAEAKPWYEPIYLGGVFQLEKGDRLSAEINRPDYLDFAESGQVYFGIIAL
T1 sequence (P50591 114-281 limits assumed): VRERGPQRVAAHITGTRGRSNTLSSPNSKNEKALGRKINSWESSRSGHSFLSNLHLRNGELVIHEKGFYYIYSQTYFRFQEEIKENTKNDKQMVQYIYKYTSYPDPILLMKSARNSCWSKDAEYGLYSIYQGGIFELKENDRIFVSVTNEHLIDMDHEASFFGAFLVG

B1: Flag epitope-tagged Apo-2 ECD (receptor, not shown: small tags and cut ends)
chain: not shown
notes: Expressed in human 293 cells; Residues 183 and 184 belong to the predicted transmembrane region and were kept for flexibility; also called Apo-2 ECD-Flag; soluble Apo-2 ECD
In the case of B1, the Kd [1] is reported as roughly 1 nM, the binding result [2] is reported as “no binding” and the binding result [3] is reported as “no binding”. B1: no binding [4].
